Data: the supplement of paper PMC3334620
The full ranking holds about 33,000 sequences; the median of “E-score (-0.5 to 0.5)” is about -0.054, and the highest 2% start at about 0.39. Some of the results follow.

The sequences below were run against Ylr278c (UniProt Q05854) (assay: PBM E-score (8-mer binding enrichment) (E-score (-0.5 to 0.5)); higher = stronger / more preferred TF binding; most listed sequences are background and not binding sites). Conditions: protein concentration: 200 nM; construct: GST-DNA-binding domain.
In short: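 Yeast transcription factors carrying a GST tag, as full-length proteins or DNA-binding domains, were produced by PURExpress in vitro transcription/translation. About 100-200 nM protein was applied to universal all-10-mer Agilent arrays, double-stranded by primer extension on fresh or once-stripped slides. Bound protein was detected with fluorescent anti-GST, and scans were normalised with masliner. The Universal PBM Analysis Suite gave each ungapped eight-base word, pooled with its reverse complement, an E-score, a modified Wilcoxon-Mann-Whitney statistic.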

Sequence | PBM E-score
ACCTCTCT | -0.217
GACCCACC | 0.116
GATACCCA | -0.0783
AACGCTCC | -0.0586
CAATCTGG | -0.0992
TAGATCAA | -0.225
CACATTAA | -0.232
AAAGTGAT | -0.0992
AAAGCGTA | -0.0252
GCACGATA | -0.026
ACTAAAGC | -0.0965
ACTCTCAG | -0.311
ACCCTGCT | -0.127
CGTCGACA | -0.111
GACAAGCC | -0.0446
GGTCAGAA | -0.0755
CCGGAAAC | 0.404
GGAATTAA | 0.282
CATACAAG | -0.247
CCATGAGC | -0.197
CTCCGAAC | 0.457
ATGTGTTG | -0.0612
AGGCTTGG | -0.043
AACCCGCA | 0.218
GAGTCGAC | 0.00525

Sequence | PBM E-score
AGAAAGTC | 0.121
ATAAATCG | 0.0793
ACATAGTC | -0.0206
ACCTGTGC | -0.0986
GGTTGCTA | -0.162
CGAGTGAG | -0.0128
GTCTTCGA | -0.173
TCTCCAGA | -0.0107
AAGAGTGA | -0.167
AGAACACT | 0.00599
GCGTCATA | -0.0652
CTACCAAA | 7e-05
GACTGGGA | 0.0171
ATAGCGAG | 0.0889
GACAGGGC | -0.0701
CTCCCAAC | -0.0692
ACTCAGCA | -0.129
CTCGTCGC | -0.0694
AGGTCAAA | -0.237
AGAGGCCA | -0.067
GACTCCTC | -0.135
AGTGCGAG | -0.276
TCGTCTAA | -0.181
CCGGGATC | 0.411
AGCCCGAT | 0.176

Sequence | PBM E-score
TGTCCCAA | -0.11
ATCGTGGG | -0.0222
ATAGTCTG | -0.303
CGTATCTC | 0.148
AGCGGTAA | 0.154
ATAGGCAC | -0.239
AGTTAGCA | -0.14
ACTATACG | -0.0768
ACCAGAGG | -0.304
ACAATAGG | 0.0339
AATAAAGA | 0.00576
AATGCATA | -0.0812
CACAGCCC | -0.176
GTGAAGGA | -0.103
CAAACCGA | -0.0941
ATGAACAC | -0.108
GCAAAGAA | 0.041
AAAAATTT | -0.00393
ACGAAAAT | -0.0863
GCTTCGCA | -0.0784
AACAGGGG | -0.141
AGGGCAAG | -0.0129
ATACGATG | -0.0393
GAGCGAGC | -0.0295
ACGTATGG | -0.163

Sequence | PBM E-score
ACTTCAAG | -0.123
ACTGTCTA | -0.169
ACCGTCTC | -0.0788
CCGTTGAC | 0.0534
ACCGACCA | 0.0285
ATCAAGGA | -0.164
AAAGATCA | -0.115
ACACCTAC | -0.00022
ATGTAAAA | -0.0769
CCTTTCCC | 0.213
CCATCTCG | 0.0354
CTGGTGTA | -0.232
ACGATTGG | -0.0687
AGCGGTTA | -0.104
AGGGAGCG | -0.14
ATGCCTTC | -0.247
ATATTCAT | -0.194
CATACCGG | 0.288
AAAATCAG | -0.0881
CAAGGTAA | 0.0397
ATGGATTG | -0.0567
CTCTTATC | 0.065
CTTATCAA | -0.104
GCTCTACA | -0.0954
AGTACTAC | -0.212

Sequence | PBM E-score
AGAGAAGC | -0.0355
GGCTGGCA | -0.188
AACCATCA | -0.0641
ATTCATAC | 0.0829
GATTTTAA | 0.0613
ACAACAGG | -0.123
CTAAAAAA | 0.101
ATGAGTGC | -0.0761
ATGCAAAT | -0.0636
GTCGGATA | 0.312
ACTATATC | -0.0833
CATAGCTA | -0.168
ATGGAGAG | -0.259
CGAGGCCA | -0.0935
AGGCGACG | 0.0174
GGGGACCC | -0.0138
AATCTCCT | 0.0721
CCCGTGAC | 0.112
TCAGTCAA | -0.219
GATTGCGC | 0.186
CAGGGCGC | 0.0102
CGCGGAAC | 0.368
GGCGACAA | -0.0481
ACAGCCAA | -0.192
ACAAGGGC | -0.143

Sequence | PBM E-score
AGTGTAAG | -0.13
CCCTAAGG | -0.151
AGCGGAGA | 0.394
ATTTTGGC | 0.087
ACTTTAAC | -0.262
ACTGGTTA | -0.0127
ACAGGCCA | -0.0991
ATATCCCA | 0.176
CAGTTGTA | -0.0678
CGTCAATC | -0.157
AGAAGTAG | -0.241
TACCCCGA | 0.411
GTACAAAA | -0.0388
ACTCAAGG | 0.0273
ATTTCACC | -0.0343
CAACGTTC | 0.0169
CTTTCCTA | -0.185
AGGTTGGA | 0.0655
ATCGTGTG | -0.00379
CTGTTGAA | 0.018
GCCTTTCC | 0.156
GCATATCA | 0.0798
GCGTTAAA | 0.0403
AAACCAAT | 0.0849
GGAAACCC | 0.192

Sequence | PBM E-score
AGCAGTAT | -0.186
AACGTATT | -0.055
GGGGAGAC | 0.0986
CAGCTAAA | -0.174
CAACATGA | -0.0341
CTTCACGC | 0.1
CACAGTGC | 0.00588
CTCCCGAA | 0.148
ATCCACTA | -0.0652
AACTCAGA | -0.213
AAAATGCA | -0.112
CCTTTCCG | 0.347
AACGTGAT | -0.201
CCGATTGA | 0.165
CCATGGCG | 0.0774
AAATTTTA | -0.232
GCGCCACA | -0.00652
AGACGCCC | 0.164
CCAAAATC | 0.123
ATGTGCCA | -0.318
CCTATCCC | 0.0733
AATTACAG | 0.0452
CTTAAAGC | 0.00637
CCACTGGA | -0.0942
ATCCTGAG | -0.166

Sequence | PBM E-score
CCTCAACA | -0.0486
CGCTCAAG | 0.0706
TCCCAACA | -0.0167
CGAAGCAA | -0.131
ACCCAGTC | -0.0927
CACACTGC | 0.0437
CAGTTCCA | -0.116
AGTCCTAT | -0.0902
CGAACCAA | 0.0389
AAAGTTCG | 0.118
GGACTTAA | 0.27
AAAATCAC | 0.00397
CCCGCGAG | 0.309
AAGGTGAA | 0.00686
AGTCAAGA | -0.234
ATTTGCTA | -0.111
AAAATTTT | 0.084
AACCGTAG | -0.146
GTAGAAAC | -0.0106
CGAAAAAA | 0.194
ATCCCAGC | -0.138
CTTACCTC | -0.0434
ACGCTGCG | 0.0169
AAGTAGTC | -0.167
CAAGGCCG | 0.207

Sequence | PBM E-score
TCAGAGGA | -0.187
CGCTGCAG | 0.0673
AGCCACTC | -0.2
GGCATAGA | 0.0356
GATGTTAC | -0.116
CGTCCCTC | -0.143
CCGTTTCC | 0.262
AAGTGGCT | -0.0911
GCAGACTA | -0.226
CATGTTCG | -0.154
GGGATGGA | 0.102
TAACGTGA | -0.289
CCGAAAGC | 0.258
CAAGCCGC | -0.0458
ATTGCATG | -0.0386
GCTTTGTA | -0.0887
CCCTGCCC | -0.205
AGTAAATG | 0.0709
AACGATCC | -0.0549
ACTTTGAG | -0.274
ACGGTACA | -0.187
AATGGTCG | -0.0882
AAGGGGGT | -0.278
CAGTCCTC | -0.18
ATCCCGTC | 0.231

Sequence | PBM E-score
TCATGAGA | -0.146
CAAAGGAG | -0.0784
CATGACGA | -0.0962
GACGGCCA | 0.054
ATAAAGAG | -0.133
AAACGTGT | 0.0136
CACTGATG | -0.18
GCGCCGTA | 0.231
ACTTATAA | 0.114
TCTGAGAA | -0.138
ATAAGTCA | -0.0695
CAAGCCCG | 0.206
AGTAGCAG | -0.185
ATCGCGAG | 0.0801
GAAGTTAC | 0.0322
CCAATACA | -0.0933
GATTGTAC | -0.145
CACCATAA | -0.106
ATCATTCG | -0.0178
TACCAGCA | -0.0848
GGGAGCAC | 0.0245
AGGTGTGG | -0.0626
ACCTGTGA | -0.0855
GTCTAGGA | -0.122
GTATTTTA | -0.066

Sequence | PBM E-score
AGATGGCG | 0.0715
AGATACGG | 0.167
TAAAGGGA | -0.0959
AAGTCCGA | 0.483
GATATAGC | 0.0728
CAATCGAA | -0.0353
CAAGCCCA | -0.357
GTTTCTCA | -0.153
TAGAGGCA | -0.256
CACCATCA | -0.0978
AAGCTGGA | -0.226
AACTGGTG | -0.292
ATCCAATG | -0.257
CTCATGGA | -0.172
GGGATGTA | 0.0101
AAGAGACC | -0.0288
GTATTGAC | -0.259
ACGACCGA | -0.123
GGGGAAAC | 0.314
GACACTCC | 0.219
CCAGGAGC | -0.101
AAGAGCCA | -0.0202
GACACATC | -0.00964
CCTTTTAA | -0.113
CTGCGATA | -0.0748

Sequence | PBM E-score
AAGGGCAC | -0.175
GCATTGCA | -0.0506
CGGAGTCC | 0.464
CGCGGCTA | 0.232
ACTCATAA | -0.125
CTCTAAAG | -0.144
AGCTCATG | -0.248
ACGCAACC | 0.0752
CTGACGCC | -0.0288
AAAGGTAG | -0.284
CTGCCCCC | -0.291
ACCACCTA | -0.0614
CACTGAAC | -0.177
ACGCGGTC | 0.193
ATCCCTAG | -0.169
GCGATGGA | 0.197
AGTATATA | 0.134
CGCCCCAC | 0.0716
AGGACTCC | 0.0662
AGCTTGCC | -0.0638
AACGAGCC | -0.205
CCACTAGA | -0.197
CCCACGAG | -0.0542
ACGTGGAG | -0.149
AGACTGTC | -0.122

Sequence | PBM E-score
CCGGCTAC | 0.309
ATGCCCTA | -0.141
CCTCTTCG | 0.0015
CTTGCCTC | 0.0426
CCAAATAG | -0.19
CATAAATA | -0.142
CGGTGTAC | 0.19
CTGAAAAC | -0.0457
ATACTGAC | -0.0294
TCGAACGA | -0.141
GAGGTATC | 0.0374
AGCTAGAG | -0.143
CGGCTTTC | 0.326
ACCCCTCT | -0.0486
ACTCCTTC | -0.105
ACCGTGTG | 0.0398
GAGGTCTA | -0.227
GTTAGGCA | -0.268
CGCAATCC | 0.233
AATTACTC | 0.0919
ACTGTCAG | -0.147
CGTTGGCA | -0.0492
AACATCGT | -0.124
GACCTCTC | 0.119
CTCGGAAG | 0.303

Sequence | PBM E-score
AACTACCG | 0.221
CTAGAGAC | -0.258
GGGGTTGA | 0.13
GATAAACC | 0.133
CGGGTCGA | -0.00775
ACATGTGC | 0.00577
ACGGATTG | 0.185
GATGCTGC | -0.13
AAAGGGTG | -0.13
CCTACCGA | -0.0804
AACCAATG | -0.155
GCGTATGA | -0.146
AATTATAG | -0.08
AAGCCAAC | -0.131
AGGTAAGA | -0.135
CTAGCGAG | -0.301
ATCAACAT | -0.221
CCAGTCCC | -0.0319
TGCCTCCA | -0.353
